# Reference: patent publication US20250333528A1 (DENALI THERAPEUTICS, published 2025)
# B1: B07v23 (Fc fusion)
# chain: QVQLVESGGGLVQTGGSLRLSCTASGLTSDTGGMGWFRQAAGKERDFVSAITWSGRHTLYADSVKGRFNISRDKGKNTVFLQMNSLKPEDTAVYYCALDVVGIGIAVQTYDYWGQGTQVTVSSGGGGAS[sequence of human IgG1 Fc with changes omitted]
# notes: B07 E100bA (Kabat) on human IgG1 Fc; also called B07 E100bA
# B2: B07v27 (Fc fusion)
# chain: QVQLVESGGGLVQTGGSLRLSCTASGLTSDTGGMGWFRQAAGKERDFVSAITWSGRHTLYADSVKGRFNISRDKGKNTVFLQMNSLKPEDTAVYYCALDVVGIGIEVQTFDYWGQGTQVTVSSGGGGAS[sequence of human IgG1 Fc with changes omitted]
# notes: B07 Y100fF (Kabat) on human IgG1 Fc; also called B07 Y100fF
# B3: B07v29 (Fc fusion)
# chain: QVQLVESGGGLVQTGGSLRLSCTASGLTSDTGGMGWFRQAAGKERDFVSAITWSGRATLYADSVKGRFNISRDKGKNTVFLQMNSLKPEDTAVYYCALDVVGIGIEVQTYDYWGQGTQVTVSSGGGGAS[sequence of human IgG1 Fc with changes omitted]
# notes: B07 H56A (Kabat) on human IgG1 Fc; also called B07 H56A
# B4: B07v24 (Fc fusion)
# chain: QVQLVESGGGLVQTGGSLRLSCTASGLTSDTGGMGWFRQAAGKERDFVSAITWSGRHTLYADSVKGRFNISRDKGKNTVFLQMNSLKPEDTAVYYCALDVVGIGIEAQTYDYWGQGTQVTVSSGGGGAS[sequence of human IgG1 Fc with changes omitted]
# notes: B07 V100cA (Kabat) on human IgG1 Fc; also called B07 V100cA
# B5: B07v25 (Fc fusion)
# chain: QVQLVESGGGLVQTGGSLRLSCTASGLTSDTGGMGWFRQAAGKERDFVSAITWSGRHTLYADSVKGRFNISRDKGKNTVFLQMNSLKPEDTAVYYCALDVVGIGIEVATYDYWGQGTQVTVSSGGGGAS[sequence of human IgG1 Fc with changes omitted]
# notes: B07 Q100dA (Kabat) on human IgG1 Fc; also called B07 Q100dA
# B6: B07v26 (Fc fusion)
# chain: QVQLVESGGGLVQTGGSLRLSCTASGLTSDTGGMGWFRQAAGKERDFVSAITWSGRHTLYADSVKGRFNISRDKGKNTVFLQMNSLKPEDTAVYYCALDVVGIGIEVQAYDYWGQGTQVTVSSGGGGAS[sequence of human IgG1 Fc with changes omitted]
# notes: B07 T100eA (Kabat) on human IgG1 Fc; also called B07 T100eA
# B7: B07v28 (Fc fusion)
# chain: QVQLVESGGGLVQTGGSLRLSCTASGLTSDTGGMGWFRQAAGKERDFVSAITWSARHTLYADSVKGRFNISRDKGKNTVFLQMNSLKPEDTAVYYCALDVVGIGIEVQTYDYWGQGTQVTVSSGGGGAS[sequence of human IgG1 Fc with changes omitted]
# notes: B07 G54A (Kabat) on human IgG1 Fc; also called B07 G54A
# B8: B07v30 (Fc fusion)
# chain: QVQLVESGGGLVQTGGSLRLSCTASGLTSDTGGMGWFRQAAGKERDFVSAITFSGRHTLYADSVKGRFNISRDKGKNTVFLQMNSLKPEDTAVYYCALDVVGIGIEVQTYDYWGQGTQVTVSSGGGGAS[sequence of human IgG1 Fc with changes omitted]
# notes: B07 W52aF (Kabat) on human IgG1 Fc; also called B07 W52aF
# B9: hB07v17 (Fc fusion)
# chain: EVQLVESGGGLVQPGGSLRLSCAASGLTSDTGGMGWFRQAPGKEREWVSAITWSGRHTLYADSVKGRFTISRDKSKNTVYLQMNSLRAEDTAVYYCALDVVGIGIEVQTYDYWGQGTLVTVSSGGGGAS[sequence of human IgG1 Fc with changes omitted]
# notes: Humanized B07 VHH (hu VH3; 37F, 44E, 45R, 73K, 78V) fused to human IgG1 Fc
# B10: hB07v21 (Fc fusion)
# chain: EVQLVESGGGLVQPGGSLRLSCAASGFTFSTGGMSWFRQAPGKEREWVSAITFSGRHTLYADSVKGRFTISRDKSKNTVYLQMNSLRAEDTAVYYCALDVVGIGIEVQTYDYWGQGTLVTVSSGGGGAS[sequence of human IgG1 Fc with changes omitted]
# B11: hB07v20 (Fc fusion)
# chain: EVQLVESGGGLVQPGGSLRLSCAASGFTFSSGGMSWFRQAPGKEREWVSAITWSGRHTLYADSVKGRFTISRDKSKNTVYLQMNSLRAEDTAVYYCALDVVGIGIEVQTYDYWGQGTLVTVSSGGGGAS[sequence of human IgG1 Fc with changes omitted]
# B12: hB07v19 (Fc fusion)
# chain: EVQLVESGGGLVQPGGSLRLSCAASGFTFSTGGMSWFRQAPGKEREWVSAITWSGRHTLYADSVKGRFTISRDKSKNTVYLQMNSLRAEDTAVYYCALDVVGIGIEVQTYDYWGQGTLVTVSSGGGGAS[sequence of human IgG1 Fc with changes omitted]
# B13: hB07v22 (Fc fusion)
# chain: EVQLVESGGGLVQPGGSLRLSCAASGFTFSTGGMSWFRQAPGKEREWVSAITYSGRHTLYADSVKGRFTISRDKSKNTVYLQMNSLRAEDTAVYYCALDVVGIGIEVQTYDYWGQGTLVTVSSGGGGAS[sequence of human IgG1 Fc with changes omitted]
# B14: hB07v18 (Fc fusion)
# chain: EVQLVESGGGLVQPGGSLRLSCAASGFTFSTGGMGWFRQAPGKEREWVSAITWSGRHTLYADSVKGRFTISRDKSKNTVYLQMNSLRAEDTAVYYCALDVVGIGIEVQTYDYWGQGTLVTVSSGGGGAS[sequence of human IgG1 Fc with changes omitted]
# B15: hB07v7 (Fc fusion)
# chain: EVQLVESGGGLVQPGGSLRLSCAASGLTSDTGGMGWFRQAPGKEREFVSAITWSGRHTLYADSVKGRFTISRDNSKNTVYLQMNSLRAEDTAVYYCALDVVGIGIEVQTYDYWGQGTLVTVSSGGGGAS[sequence of human IgG1 Fc with changes omitted]
# notes: Humanized B07 VHH (hu VH3; 37F, 44E, 45R, 47F, 78V) fused to human IgG1 Fc
# B16: hB07v8 (Fc fusion)
# chain: EVQLVESGGGLVQPGGSLRLSCAASGLTSDTGGMGWFRQAPGKEREFVSAITWSGRHTLYADSVKGRFTISRDKSKNTVYLQMNSLRAEDTAVYYCALDVVGIGIEVQTYDYWGQGTLVTVSSGGGGAS[sequence of human IgG1 Fc with changes omitted]
# notes: Humanized B07 VHH (hu VH3; 37F, 44E, 45R, 47F, 73K, 78V) fused to human IgG1 Fc
# Biological target: T1, cynomolgus transferrin receptor apical domain (cynomolgus, UniProt A0A2K5X958 198-378)
# T1 construct: domain: apical domain; Soluble analyte in SPR; also called cyTfR-AD; cyno TfR apical domain
# T1 sequence (A0A2K5X958 entry or part of it): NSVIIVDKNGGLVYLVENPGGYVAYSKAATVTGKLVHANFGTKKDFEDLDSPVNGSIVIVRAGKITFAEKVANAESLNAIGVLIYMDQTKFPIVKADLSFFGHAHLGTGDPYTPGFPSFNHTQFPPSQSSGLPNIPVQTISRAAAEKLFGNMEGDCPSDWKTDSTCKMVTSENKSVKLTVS
# Assay: SPR (Biacore 8K), VHH-Fc captured, TfR apical domain as analyte
# Method: (§1) A set of experiments was performed to assess the binding affinities of VHH-Fc fusions for human and cyno TfR apical domain. In these experiments, binding affinities were determined by surface plasmon resonance using a Biacore™ 8K instrument in 1×HBS-EP+running buffer (GE Healthcare Cat. No. BR100669). Biacore™ Series S CM5 sensor chips were treated with a Human antibody capture kit (GE Healthcare, Cat. No. BR100839). VHH-Fc fusions were captured on each flow cell and serial 3-fold dilutions of human and cyno TfR apical domain (300, 100, 33, 11, 3.7, and 0 nM) were injected at a flow rate of 30 μL/min using the multi cycle kinetics method. Each sample was analyzed with a 270-second association and a 10-minute dissociation. Some VHH-Fc fusions were measured with serial 3-fold dilutions of human and cyno TfR apical domain (100, 33, 11, and 0 nM) with a 300-second association and 10-minute dissociation. After each cycle, the chip was regenerated using 3 M magnesium chloride for 30 seconds at 50 μL/minute. Binding response was corrected by subtracting the RU from a reference flow cell. A 1:1 Langmuir model of simultaneous fitting of kₒₙ and koff was used for kinetics analysis using Biacore™ 8K Evaluation Software.
# (§2) The variable domains containing the mutation were sub-cloned onto the corresponding constant heavy domains of human IgG1. The heavy chain plasmids were transfected in Expi293 cells. Supernatants were collected after five days and monoclonal antibodies were purified by protein A chromatography. In order to assess affinities of the B07 mutants for human and cyno TfR apical domain, binding affinities were determined by surface plasmon resonance using a Biacore™ 8K instrument as described herein.
row,Kd,Binder
1,5 nM,B1
2,6.7 nM,B2
3,11 nM,B3
4,2 nM,B4
5,2.8 nM,B5
6,6.6 nM,B6
7,2.3 nM,B7
8,1 nM,B8

# Biological target: T2, human transferrin receptor apical domain (human, UniProt P02786 198-378, limits assumed)
# T2 construct: domain: apical domain; Soluble analyte in SPR; also called huTfR-AD; human TfR apical domain
# Assay: as above
# Method: as §1, §2
row,Kd,Binder
1,2 nM,B1
2,2.8 nM,B2
3,5.1 nM,B3
4,1 nM,B4
5,1.1 nM,B5
6,2.4 nM,B6
7,1 nM,B7
8,1.2 nM,B8

# Biological target: T1, cynomolgus transferrin receptor apical …
# Assay: as above
# Remark: another data set of the same source
# Method: as §1
row,Kd,Binder
1,2.5 nM,B9
2,25 nM,B10
3,47 nM,B11
4,32 nM,B12
5,77 nM,B13
6,5 nM,B14

# Biological target: T2, human transferrin receptor apical domain
# T2 sequence (P02786 198-378 limits assumed): as the sequence (A0A2K5X958 entry or part of it) above, with G11R, D50Y, S51T, K95N, D97E, Q128R, K167R, N173S, S175N counted along it
# Assay: as above
# Remark: another data set of the same source
# Method: as §1
row,Kd,Binder
1,1.2 nM,B9
2,14 nM,B10
3,25 nM,B11
4,17 nM,B12
5,37 nM,B13
6,2.6 nM,B14

# Biological target: T1, cynomolgus transferrin receptor apical …
# Assay: as above
# Remark: another data set of the same source
# Method: as §1
row,Kd,Binder
1,2.3 nM,B9
2,2.8 nM,B15
3,1.9 nM,B16

# Biological target: T2, human transferrin receptor apical domain
# Assay: as above
# Remark: another data set of the same source
# Method: as §1
row,Kd,Binder
1,0.4 nM,B9
2,1 nM,B15
3,0.7 nM,B16
